# Source: the supplement of paper PMC3334620
# The full ranking holds about 33,000 sequences; the median of “E-score (-0.5 to 0.5)” is about -0.041, and the highest 2% start at about 0.37. The list shows a part of the results.
# Target: T1, Ecm22 (UniProt Q05958)
# T1 sequence: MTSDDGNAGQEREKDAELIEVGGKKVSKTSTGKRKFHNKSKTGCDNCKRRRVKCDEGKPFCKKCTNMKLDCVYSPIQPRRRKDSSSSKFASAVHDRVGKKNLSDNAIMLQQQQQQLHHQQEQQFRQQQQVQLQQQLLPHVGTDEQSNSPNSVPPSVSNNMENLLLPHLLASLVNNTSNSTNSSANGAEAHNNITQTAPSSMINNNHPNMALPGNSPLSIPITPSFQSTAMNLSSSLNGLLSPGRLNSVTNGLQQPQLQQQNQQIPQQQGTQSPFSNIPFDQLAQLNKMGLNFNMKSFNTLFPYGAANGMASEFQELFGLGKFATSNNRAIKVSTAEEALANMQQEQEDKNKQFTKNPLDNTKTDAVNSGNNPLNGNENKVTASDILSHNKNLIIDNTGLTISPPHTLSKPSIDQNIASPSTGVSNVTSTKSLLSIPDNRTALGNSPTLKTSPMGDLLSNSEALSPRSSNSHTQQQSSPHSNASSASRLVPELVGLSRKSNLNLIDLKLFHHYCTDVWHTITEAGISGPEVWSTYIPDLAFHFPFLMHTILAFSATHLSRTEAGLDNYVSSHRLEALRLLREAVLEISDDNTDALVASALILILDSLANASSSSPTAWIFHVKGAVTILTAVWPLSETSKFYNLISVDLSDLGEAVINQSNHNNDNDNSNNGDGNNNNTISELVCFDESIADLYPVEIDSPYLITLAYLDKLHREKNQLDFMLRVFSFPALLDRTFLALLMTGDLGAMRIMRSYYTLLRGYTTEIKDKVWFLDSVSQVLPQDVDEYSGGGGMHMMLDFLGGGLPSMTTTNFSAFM
# Assay: PBM E-score (8-mer binding enrichment) (E-score (-0.5 to 0.5)); higher = stronger / more preferred TF binding; most listed sequences are background and not binding sites
# Conditions: protein concentration: 200 nM; construct: GST-full length
# How it was run: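 Full-length yeast transcription factors or their DNA-binding domains, GST-tagged and expressed with PURExpress, were applied at about 100-200 nM to universal all-10-mer Agilent arrays. These arrays had been made double-stranded by primer extension on fresh or once-stripped slides. Detection used fluorescent anti-GST, normalisation used masliner, and E-scores for ungapped eight-base words pooled with reverse complements came from the Universal PBM Analysis Suite.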
row,Sequence,PBM E-score
1,ACAGTATG,0.0575
2,CACTTCCA,-0.146
3,AGCGCCTC,-0.0741
4,AGTCCACA,-0.121
5,CGGGTTCA,0.0613
6,ACCCCACT,0.0855
7,CATATAAC,-0.00057
8,GGAATCGA,-0.146
9,AACATCAC,-0.116
10,TTACAGAA,-0.184
11,GTATCACA,0.246
12,ATACACAC,0.0416
13,GAACAAAC,0.142
14,AGTCGTGG,-0.233
15,TGCGTTAA,0.243
16,CAAAGGGA,-0.177
17,ACGGCGGA,-0.00123
18,AGCACGTC,-0.0967
19,AGTACCAA,-0.119
20,CCGGGCCC,-0.118
21,CACGGTTA,0.0472
22,CCATAGAA,-0.113
23,CAAATTCC,-0.0132
24,AGCCGATA,-0.109
25,GGTCTGAA,-0.0279

row,Sequence,PBM E-score
1,CTTGACTC,-0.0877
2,AAATGGCC,-0.213
3,ACAGACGG,-0.0713
4,GCTGTGGA,-0.15
5,ATGAGGCC,-0.121
6,ACTTACGG,0.207
7,CCCGTGAA,-0.0237
8,AGGCTTCC,-0.107
9,GAATCGCC,-0.024
10,TTGGTAAA,0.143
11,AGGAGGCA,-0.294
12,CGGATGTA,-0.0688
13,GTAGAAAA,0.101
14,TGATCTAA,0.0714
15,GACCGATC,0.0353
16,ATTGAATG,-0.0677
17,GTGTTGAA,-0.0883
18,AAGGTCCA,-0.0883
19,AGAAGCCC,-0.00607
20,GGGCCCCA,-0.31
21,CATAGGTC,-0.0995
22,ATCCTGCA,-0.21
23,AGTCCTCA,-0.363
24,CAAGTACG,0.302
25,CGCAGACG,0.0182

row,Sequence,PBM E-score
1,CAGACGAG,0.199
2,CGCTTAAC,0.347
3,CCGTATCG,0.291
4,CCGCGCAG,0.138
5,GGGCCACA,-0.138
6,CCGTCGTC,0.0655
7,ATTCGCGC,0.091
8,AGCTTGAC,-0.0484
9,CCCCCTTA,-0.231
10,GAATCACA,-0.0486
11,AGTGACAC,-0.0235
12,AATCTACA,0.126
13,CCCTACTC,-0.0363
14,GGCGTTAC,-0.0165
15,ACCTTAGG,-0.312
16,AGATACCG,-0.0647
17,ACGTAGGC,-0.0572
18,CTTACATA,-0.042
19,CAATCGTC,-0.0527
20,CCGTCACA,-0.128
21,TACTTTCA,-0.0821
22,ACGAAGGG,0.362
23,AAAGCTCT,-0.258
24,AACCTATC,-0.132
25,CTTGGCTC,-0.151

row,Sequence,PBM E-score
1,AGCGGAGG,-0.0849
2,ATAGAGAA,-0.112
3,CCCGATGA,-0.0212
4,TATGGCGA,0.00926
5,CAGTCAAA,0.0712
6,ACAGGCAC,-0.0318
7,CGTGACTA,0.0224
8,ACTCTGAA,-0.0558
9,AATACCGA,0.111
10,CTAATCGA,0.17
11,CTTACAGA,-0.194
12,AGCGCAGC,-0.092
13,AGATAAGA,0.057
14,CAATGCAG,-0.114
15,AGGAGCAT,-0.17
16,AGTTAACC,0.0545
17,AATACATT,-0.0134
18,CGAGACGC,0.141
19,CGCATAGA,0.138
20,TCTTAACA,-0.147
21,AAACGCTT,0.00074
22,CACTTGAA,-0.15
23,TCGGGTCA,0.241
24,CGCTATAA,0.164
25,AGTTGTTA,-0.108

row,Sequence,PBM E-score
1,ATCCGCCG,-0.0335
2,AAGCGTGT,-0.18
3,AGCCAGTG,-0.0428
4,AACACTCT,-0.223
5,CCCTGCGG,-0.0714
6,ACAATGTC,0.0348
7,AAAAGTGG,-0.0642
8,CCAAATGC,-0.251
9,AGTACTAT,0.0505
10,ACTATGCC,-0.133
11,ATTACTCA,-0.191
12,TACCCCCA,-0.17
13,AGCCTTAC,-0.108
14,CGTGCTGA,-0.109
15,AACCTAGG,-0.145
16,AAACGACG,0.465
17,GCCGGGAA,-0.114
18,CAGCATCC,-0.16
19,GATCCTGA,0.14
20,CCGAGGGC,0.203
21,CGGGGCAG,0.098
22,CCGACGAG,0.165
23,CTTGAATC,-0.0358
24,CTGGAGGA,-0.232
25,CAAGATCC,-0.0465

row,Sequence,PBM E-score
1,GAGAACTA,0.107
2,CACCCAAG,0.0915
3,TCATAGCA,-0.108
4,GGAGGGGA,-0.0839
5,GCCAACAA,-0.138
6,CCAGCAAG,-0.163
7,CACGGCCA,-0.32
8,CCTATGCC,-0.133
9,TGCGGTAA,0.0996
10,GAGGTAGC,-0.00449
11,ACAAAACG,0.102
12,AATAGTGT,0.0911
13,CGGTCACA,0.0119
14,ACCGGTCC,-0.256
15,AAGTCGTG,-0.0717
16,AGCAGACC,0.0909
17,CCTCTGTA,0.102
18,GACTAACA,0.0595
19,TTCTCCAA,-0.013
20,CGCTAACG,0.252
21,GCAAGGCC,-0.166
22,CCTAAACA,-0.149
23,ATATCCAA,-0.108
24,CCGAGCGC,0.216
25,TAGTCTAA,-0.04

row,Sequence,PBM E-score
1,AATTGTTC,0.122
2,CGTGGGTA,-0.247
3,CTTGTCAC,-0.108
4,CTGAGTCC,-0.14
5,AGCATGAC,-0.189
6,AGATGTGG,-0.152
7,AATCGATC,0.0253
8,GCAAGTAC,0.0873
9,AAGACAAG,-0.084
10,GAAAGGGC,-0.298
11,GTGATGTA,0.127
12,GGGAGACC,-0.194
13,AACCCGCC,0.00548
14,CTCACGCC,-0.0247
15,GTACAGAA,0.12
16,CACACTGA,-0.0509
17,ATATAGGG,-0.0439
18,GTCGCCCA,-0.207
19,CTACTACC,-0.0712
20,TGCCTTAA,-0.118
21,ACACGTAA,-0.0557
22,GGTTAAAA,0.104
